Assay results reported in the supplement of paper PMC3724861.
Some of the results follow.

System: T1, Caupolican (Caup) homeodomain DNA-binding domain
T1 sequence: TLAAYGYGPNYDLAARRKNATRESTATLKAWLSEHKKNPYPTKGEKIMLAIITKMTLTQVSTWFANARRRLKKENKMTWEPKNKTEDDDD
Test: PBM E-score (8-mer, recovered from the published 9-mer minima) (E-score (dimensionless, -0.5 to 0.5)); Drosophila protein; higher = stronger relative binding preference, active = 0.31 or more
In short: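 Caup's homeodomain DNA-binding domain (residues 214-303) was produced by in vitro transcription and translation and applied at 100 nM to custom-designed protein binding microarrays. Each value is an enrichment score giving relative binding preference for a short DNA word; higher means stronger. Published 9-mer scores were the minimum of their two constituent 8-mer scores, and the 8-mer values were recovered from those minima. A cutoff of 0.31 marks candidate binding sequences.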

PBM E-score, ≥ 0.0301:
CGACCTCA

PBM E-score, ≥ 0.113:
ATGAACCA

PBM E-score, ≥ 0.101:
ATCTTGAA

PBM E-score, inactive:
CATACTAC 0.147
GACGCGTA 0.0959
GCTGATTA 0.134
AGAAACGG -0.0727
CGGGGATC -0.203
CTGTTCCC -0.0187
AAAATTCT 0.111
GAAATCAC 0.121
CAGCTCGA -0.14
AAGTTGTC 0.28
AGTCGCCG -0.138
CAGAGTAG 0.0239
ACAGGCGG -0.0126
AGGTACGG -0.048
ACGGCTGG -0.201
CGCTGATA 0.00665
GCTTGGCA -0.0609
TAAATATA 0.187
ACTGGCCT -0.14
AAAGTGAC 0.0122
CCTAGTCA 0.0804
CTTCGAGA -0.102
GTCAAAAA 0.0692
GACAGTCC -0.0537
ATGCCACG -0.079
CAGTATCA 0.127
GTCAGCTA 0.0404
GTATGGCA -0.0182
ATATTGTG 0.139
ATTAACAG 0.146
CACACAAA 0.0943
GTGCGCGA -0.12
CAGTTCAC -0.00615
AGAGGCAC -0.214
GCAGTGCA -0.0579
ACCACGGA -0.0601
TTAGAAAA 0.0882
ACTTTTCG 0.0288
CTGAGCTA -0.0782
TAACTGAA 0.00442
CCCTAACC -0.195
ACTGCAAA -0.00032
TATGCTGA 0.0607
CCGTGGAA -0.12
CCTGGCAG -0.129
CGAGCCCG -0.122
ACTTATCG 0.0884
CCGGTTCC -0.207
TGCGAGAA -0.134
CCTACTAA -0.0684
ATACCAAG 0.0808
ACCACTCT -0.0256
ACGTCGAC 0.0424
CAACATTA 0.305
GCATAAGC -0.0256
CTGCCCAC -0.0591
AGACTCGG -0.166
ACTCCTAC 0.0383
AATATACC 0.13
ACCATACC -0.0612
CCCAGAGA -0.196
CATGTGTC 0.245
CCCTACGA -0.059
AAAAGTTT 0.0301
AAGTGGGC -0.0941
ACGAGGAG -0.0581
GTTTATGA 0.102
CGTCTTAA -0.0241
AGGGTACA 0.234
ACAGGGTC -0.0149
TAAGATAA 0.032
CTGTTGTC 0.256
TTCTTCAA 0.0202
AATCAGCC -0.0445
CTCTGGCA -0.152
CTTTTACC -0.00247
CGAAGACG -0.178
AACGTTGT 0.204
TCCAAACA 0.152
CGCTTTTC -0.112
CAGTGAGA -0.0392
ATACCTGG -0.0292
GTCACGAA 0.0637
CGGACAAA 0.12
CACATACC 0.153
GAACTTAC 0.0521
AGCTTCTC -0.0895
CGGTCTTA -0.00157
AATGTTAC 0.277
AGTCGGTC -0.0794
CGGAACAA 0.235
AAAACGGC -0.0103
AGCAAAAT 0.0845
CGTGGGCC -0.298
CTGGACGA -0.0359
ATTATTAC 0.238
CATGAATG 0.141
CCTAGGGC -0.287
ATGTGCAG 0.0547
CGAATACA 0.218
CCTTCTAA -0.0263
ATATCATG 0.151
AGTTTTCC -0.0223
AGCTTAAC 0.00322
GCAGTAAA 0.0253
ATGCAGAA 0.0732
AAAACACG 0.303
ATATGTAG 0.297
CCAGCGGG -0.276
GCTGGCTA -0.178
GTAACCAC 0.0618
TGCGGCAA -0.0363
AGAAAGAT 0.0904
CTTCCTTC -0.186
CATACTTC 0.0775
CTATGCTC 0.0374
AAACGCTG 0.0147
ATTAGGGA -0.0365
GCCCACAC -0.144
AATAGGGG -0.14
CGCAGGAG -0.175
ACGGTAGT 0.0922
AAGGTGTC 0.129
AATATCTA 0.145
ATTAAACA 0.271
GAACCTCC -0.166
GGTGACGA 0.0261
CAGCTCCC -0.166
TTCAGGAA -0.0421
CTTGCCAA 0.0457
AAAGACCA -0.0885

PBM E-score, ≥ 0.146:
ATCAGCAT

PBM E-score, ≥ 0.2:
CGATGTGA

PBM E-score, active:
GGTAACAA 0.316
AGTACACG 0.376
ATGACATG 0.422
ACGACAAG ≥ 0.317
CACTTGTA 0.318
GACAAGAC 0.325
ATGACATC 0.333
